First the molecules themselves.
B1: OR4K15 (parent)
chain: GUUAACGGUCAUAGGCCAUGGAAACUAGGAGCACCAUUUCGCUGCCAGUGAAGAAAUGAACAAAGAAAAUCUGGGCCAGGCAGGCAUCAAAAGAAAUAGUCUUGCGCUCAACCAGAAAGUCUGUAAUCAUUUUAAGGGUA

Read counts are not given, so values of variants with three or more changes are uncertain.

In this data set the parent is B1. The data set is described as follows: self-cleavage, relative activity (ratio to wild type); higher = more cleavage; in vitro, sequencing; the parent is a self-cleaving ribozyme.
On to A18U A67G A114G, for which the self-cleavage was found to be 0.16. For A18G A94G U100C C113U, the self-cleavage came to 0.13. For the variant A18U G41U A92G, the self-cleavage worked out at 0.51. For A18G A68U G75A the value was 0.13. A18G U26C U43C A90G: the self-cleavage was 1.42. With A18G A62G U103C A111G the figure was 0.02; with A18U U26C U39C, 1.17; with A18G U38C A47C U131C, 0.48. As for U19A A24G A60G C61U A66G U103C, the self-cleavage came to 0.76.

Regarding A18G A24G A89U A96G U103C, the self-cleavage turned out to be 1.13. With A18G U57C A64G U122C U127A the figure was 1.29. With A18U A23G U39A, the self-cleavage came to 1.14. As for A18G A27G A78G, the self-cleavage turned out to be 0.22. With U19A A30U U122C the figure was 1.06; with U19A A51U A126G, 0.94; with U19A A51U U103C, 1.25. For A18G A51G A94G U130C, the self-cleavage is 1.12. For the variant A18G A36G A69G U72G A94G, the self-cleavage was 0.15. On to U19C A30U A95G, for which the self-cleavage was found to be 1.49. For U19C A23G U102C A116G the value was 0.98; for A18U A51G G58A A68G A118U U131G, 0.37; for A18G G20A G84A U122A, 1.42. For A18G A67G U72A the value was 0.19; for A18G A47G A82G U100C A111G A118G, 0.01; for A18G A59G U102C, 1.25. With A18U A24U A63U A82G A94C the figure was 0.36; with A18C A66U U102C A111G, 0; with A18G A24C A30G A125G, 0.33.

Turning to A18G A62U U100C A118G, the self-cleavage was 0.62. For U19A A22G A125G the value was 0.52; for U19A A86G A98G, 0.41. In the case of A18G A68G A89G A140G, the self-cleavage is 1.42. Consider A18G A23G U39C A96G G106U A129G, for which the self-cleavage came out at 0.01. U19C A24G A92G C112U: the self-cleavage is 0.01. For A18U A22G A51G U127C the value was 0.34; for U19C A23G U38C A47G U49A A62G C113U U132C, 0.03; for A18G A67G A96G, 1.62.

In the case of A18G U87C A98G U108C A111G, the self-cleavage stood at 0.01. Consider U19A A30G U49C A110U, for which the self-cleavage worked out at 0.92. With A18U C85U A110C U124C the figure was 0.01; with A18U A62G U70C A140G, 0.39; with A18U A82G U131C, 0.17. Take A18G A30G U37G A51U U70C A135U: the self-cleavage was 0. U19C A33G A47U G75A U87C A91C: the self-cleavage was 0.12. Take A18G A51G A82G U100G: the self-cleavage was determined as 0.4. On to A18U A22G U108C, for which the self-cleavage was determined as 0.05.

Consider U19C A24G A51G U108A, for which the self-cleavage worked out at 0.04.

As to U19A A36G U38C A60G C107A, the self-cleavage was 0.05. With U19A A96G U108A A110G the figure was 0.03; with A18G U38C A56G A60C, 1.58. Regarding A18G A22G A24G A92G U124C, the self-cleavage was 0.3. With A18U A56G A92U U132C the figure was 2.04; with A18G A33G G44A A82G U127C, 0.07. As for A18U U49C A118G, the self-cleavage amounted to 0.5. For A18G A52G U70C U72A U122A, the self-cleavage stood at 0.28.

For U19A U103C A114U, the self-cleavage was 0.05. As for A18G U57C A67G C107G U124C U127A, the self-cleavage turned out to be 0.05. For the variant A18G A30G A78U A94G A126G, the self-cleavage turned out to be 0.4. Consider A18C A94U G99A A116G, for which the self-cleavage was 0.2.

On to A18G A90G A95G, for which the self-cleavage was determined as 1.56.

As to U19A A51U A78G, the self-cleavage was 0.2. With A18U U39C U100C the figure was 2.55.

Regarding A18U A23G A63U, the self-cleavage was 1.23.

A18G A82G U100C U103C: the self-cleavage turned out to be 2.05. For A18G A86G U132C A140G the value was 1.59. With A18U A47G G74A A89U A117G the figure was 0.22; with A18U G53U A90G, 1.67. On to A18U U43A U49A A64G A110U A116G, for which the self-cleavage amounted to 0.43. For A18G A22G A27U U37C U87C the value was 0.36. Regarding A18G A23G A55G A91G A94G, the self-cleavage amounted to 0.66. For A18U A114U A135G the value was 0.01.

On to A18G A62C A94G, for which the self-cleavage was 1.45. As to A18G A51G U139C, the self-cleavage was found to be 0.33. As to A18G A24C A64G A68G U70C, the self-cleavage turned out to be 0.82. With U19C A23G A55G G73U U97C the figure was 0.16. With A18G A36U U122C the figure was 1.8. As to A18U A67G U87A A140G, the self-cleavage was 1.68. With A18G A116G A140G the figure was 0.58; with A18U C77U A116G, 0.6; with A18G G28A A96G A114U A118G, 0.09. With A18G A68U U70C the figure was 0.41; with U19A U43C A68G C128U, 0.8; with A18G U49C A54G A60G G106A, 0.03.

Consider U19A A56G A114U, for which the self-cleavage was determined as 0.06.
